Measurements published in the BET-seq Pho4 binding data (Le et al. 2018).
This is one part of the list. The energies were worked out here from pooled read counts, against the library average; single values are noisy.

Biological target: T1, Pho4 (S. cerevisiae) (UniProt P07270)
T1 sequence: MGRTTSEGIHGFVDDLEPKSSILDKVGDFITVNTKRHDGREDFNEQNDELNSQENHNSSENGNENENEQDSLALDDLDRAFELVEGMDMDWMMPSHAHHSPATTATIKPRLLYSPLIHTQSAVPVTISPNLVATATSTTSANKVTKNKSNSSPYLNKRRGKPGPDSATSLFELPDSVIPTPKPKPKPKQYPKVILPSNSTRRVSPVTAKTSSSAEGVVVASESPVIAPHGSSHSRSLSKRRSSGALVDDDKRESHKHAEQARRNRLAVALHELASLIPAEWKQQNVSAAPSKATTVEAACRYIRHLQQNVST
Experiment: relative binding free energy (BET-seq); higher = weaker binding
Settings: reference: library average

| Sequence | relative binding free energy [kcal/mol] |
| --- | --- |
| GTGGGCACGTGAACTG | 0.28 |
| TGCTTCACGTGGAATA | 0.32 |
| CGGTGCACGTGGTTCA | -0.13 |
| GGTAGCACGTGTCTGT | -0.11 |
| TGGATCACGTGGGGCA | 0.06 |
| TGATGCACGTGGTTCT | -0.08 |
| ATAATCACGTGCAGGG | 0.18 |
| GAACACACGTGTGGGG | 0.18 |
| AATGGCACGTGATTGT | -0.1 |
| CTCGTCACGTGGTGTT | -0.1 |
| TTGTTCACGTGAGAAT | 0.42 |
| AAGGCCACGTGTGGAG | -0.04 |
| TTTCTCACGTGTTTTA | 0.27 |
| TCGGTCACGTGTTGTG | 0.21 |
| GCGAGCACGTGTGCGG | -0.15 |
| GTATTCACGTGTTCAT | 0.27 |
| GGAGGCACGTGGGCCT | -0.28 |
| AGGCGCACGTGGGGCA | -0.35 |
| GATTCCACGTGGTTGT | 0.22 |
| AAGGCCACGTGTGTGA | -0.12 |
| TAAAGCACGTGGGGTA | -0.23 |
| TTGTACACGTGAACGG | 0.19 |
| TGTCGCACGTGATTGT | -0.01 |
| GGGAGCACGTGATAGG | 0.04 |
| GGGTACACGTGTTCTA | 0.05 |

| Sequence | relative binding free energy [kcal/mol] |
| --- | --- |
| GTGTTCACGTGTTCCG | 0.49 |
| CTTAGCACGTGGGGGA | -0.12 |
| TATTGCACGTGCCAGG | 0.02 |
| GGTTTCACGTGTGACT | 0.34 |
| TCTGTCACGTGTGCGG | 0.12 |
| CGGGGCACGTGCGGGA | -0.22 |
| CAGTTCACGTGAAATG | 0.5 |
| TTTTACACGTGGGGCG | 0 |
| GAAGTCACGTGGAATT | 0.32 |
| TTATGCACGTGGTTAT | -0.12 |
| TTGTACACGTGTTATA | 0.16 |
| AAGCACACGTGTGTGG | 0.1 |
| TGATACACGTGGGATG | 0.06 |
| CTTGGCACGTGGGGTG | -0.21 |
| TATGTCACGTGGGGCA | -0.21 |
| GGGTACACGTGGATCG | 0.03 |
| GGAGGCACGTGGAAAT | 0.01 |
| GTAGGCACGTGGCTGT | -0.13 |
| GGCGGCACGTGTGGTT | -0.03 |
| TTAAACACGTGGGAGG | -0.03 |
| TAGGGCACGTGTATGC | -0.15 |
| TGCGTCACGTGCTATG | 0.08 |
| CGAGTCACGTGGGGTC | 0.02 |
| GTTTACACGTGCCGGT | 0.14 |
| TCGTGCACGTGGATTG | -0.03 |

| Sequence | relative binding free energy [kcal/mol] |
| --- | --- |
| GGGTGCACGTGCTGAG | -0.07 |
| TTGTGCACGTGCAGAG | 0.09 |
| AAGGTCACGTGGCGTT | 0.01 |
| ATATGCACGTGTTTGG | 0.02 |
| AGGTTCACGTGAAATA | 0.35 |
| GTGCTCACGTGTGGCG | 0.25 |
| AGTACCACGTGGGGTC | 0 |
| ATGGGCACGTGGCACG | -0.29 |
| TACTTCACGTGTGGTA | 0.31 |
| AGATGCACGTGTGAGA | 0.12 |
| TAAGTCACGTGAGGAT | 0.31 |
| GAAGGCACGTGGGTGA | -0.2 |
| AGTCTCACGTGATTTG | 0.21 |
| GGGTCCACGTGGCGTT | -0.11 |
| TTGTGCACGTGTTAAG | 0.12 |
| GTTGTCACGTGAGGGA | 0.3 |
| TCTTTCACGTGAAGGT | 0.35 |
| GAGCTCACGTGTGGTT | 0.26 |
| GCTGTCACGTGTTGTC | 0.15 |
| AGGTGCACGTGTTCTA | -0.02 |
| TCGCTCACGTGGGTTG | 0.04 |
| TAGAACACGTGTGAGT | 0.1 |
| CTTTGCACGTGGCTGT | -0.08 |
| GAGTTCACGTGGTATT | 0.27 |
| GCGGGCACGTGAGTAG | 0.07 |

| Sequence | relative binding free energy [kcal/mol] |
| --- | --- |
| GCTAGCACGTGGGTAT | -0.07 |
| GTCTACACGTGTTTGT | 0.13 |
| TTCTACACGTGGGAGT | 0.07 |
| CGGAGCACGTGTTGTT | -0.02 |
| TTAATCACGTGTACGG | 0.17 |
| TTGATCACGTGCGGGC | -0.02 |
| CTGTTCACGTGGTTAA | 0.09 |
| TATAACACGTGGGCTT | -0.14 |
| ATGTACACGTGGATTG | 0.05 |
| GGTTTCACGTGGTAGG | 0.37 |
| AGTGTCACGTGGAAGA | 0.12 |
| TCTCTCACGTGTTGTG | 0.14 |
| TGGGTCACGTGATCGT | 0.29 |
| GCCGTCACGTGGGTGT | -0.07 |
| GGTGACACGTGTTCGG | -0.03 |
| CGGTTCACGTGGTGTC | 0.25 |
| ATTTACACGTGAATTA | 0.26 |
| TCATACACGTGTGGTG | 0.08 |
| TATTTCACGTGCTATT | 0.14 |
| TGTTGCACGTGATGAC | 0.02 |
| TGTTCCACGTGGGTGG | 0 |
| TGAATCACGTGTTAGG | 0.24 |
| CTGGACACGTGGGGCG | -0.1 |
| GGTGTCACGTGATTGC | 0.16 |
| AAGTTCACGTGTCATG | 0.29 |

| Sequence | relative binding free energy [kcal/mol] |
| --- | --- |
| CGTGACACGTGTCGGT | 0.05 |
| TGGGTCACGTGTCAGT | 0.18 |
| AGTAACACGTGTGGAA | -0.04 |
| TCGTGCACGTGAGGCT | 0.07 |
| TCGGGCACGTGGAGGC | -0.09 |
| TGGAGCACGTGACGGT | 0.14 |
| AGGGGCACGTGTGAAA | 0.06 |
| TATTCCACGTGAGTGG | 0.17 |
| GGTGACACGTGTCGTG | 0.06 |
| AGGAACACGTGCGGTT | 0 |
| GCTGGCACGTGTAGGG | -0.05 |
| ATCGGCACGTGAATTT | 0.27 |
| TCAAACACGTGGGGGT | -0.24 |
| ACTTACACGTGTTTGT | -0.01 |
| GTGGTCACGTGGTGAT | 0.13 |
| GGAATCACGTGAATGT | 0.39 |
| CTTGGCACGTGGAAGT | 0.04 |
| TTCATCACGTGTAGTA | 0.09 |
| GATTGCACGTGTAGAA | 0.21 |
| TCGGTCACGTGGTCGA | 0.03 |
| AGCGGCACGTGAGCTG | 0.21 |
| GGCCTCACGTGTGTGG | 0.33 |
| GAGTTCACGTGTGTTT | 0.4 |
| AGTGTCACGTGTTTAC | 0.03 |
| TGTAACACGTGGCGTG | -0.08 |

| Sequence | relative binding free energy [kcal/mol] |
| --- | --- |
| TGATGCACGTGCTGGT | -0.04 |
| GCGGTCACGTGAGGCG | 0.29 |
| GTTTACACGTGGTGCC | 0.15 |
| GGTTACACGTGTTGGA | 0.27 |
| TGGACCACGTGTTATT | 0.13 |
| TTTGGCACGTGGTGTG | -0.14 |
| TTTATCACGTGGAAGC | 0.3 |
| GTGGTCACGTGGTGTC | 0.14 |
| CGGGTCACGTGGGTAA | -0.01 |
| ACGGGCACGTGTGAGA | -0.04 |
| ATGCGCACGTGGGCAG | -0.22 |
| ATAAACACGTGTGCGG | -0.01 |
| TTTAACACGTGATTAT | 0.18 |
| AGAGGCACGTGTGATA | 0 |
| GTATGCACGTGCAGGG | 0.06 |
| TGGTGCACGTGGGTAC | -0.11 |
| TGCTACACGTGTGATT | 0.26 |
| GGATACACGTGTAGTT | 0.17 |
| TTTAACACGTGTGAGG | 0.01 |
| CTGTGCACGTGGGGCT | -0.12 |
| TGCTTCACGTGCGGGT | 0.32 |
